PubChem BioAssay AID1508623 (National Center for Advancing Translational Sciences (NCATS), 2021)
The campaign covered roughly 48,000 compounds. About 450 (0.94%) were called active. Not shown: some 19% with an inconclusive outcome. The call rests on the fitted dose curve; in most records, active means well fitted inhibition curve with a large enough effect; inconclusive means small, poorly fitted or top-dose-only effect; inactive means no such curve, though single readings can be large or run the other way. The list shows a part of the results.

experiment: Primary qHTS for Identification of Small Molecule Inhibitors of Huntingtin Promoter Activity; conditions: HEK293 HTT promoter firefly luciferase reporter (activity 0% = vehicle and -100% = no light), 24 h; series mostly up to 57.5 µM; activity change, negative = inhibition: at the top concentration; further: nearly all actives have a fitted effect of over 50% in size
Procedure, shortened: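 Firefly luciferase readout (Dual-Glo, 10 min RT) after 24 h, 37 °C compound exposure (final up to 57.5 uM) of HEK293 reporter cells cultured 24 h beforehand; PTC124 at 50 uM final as control inhibitor; activity scaled vehicle 0%, zero RLU -100%.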
Potency means the concentration at half of the fitted maximal effect.

Structure (SMILES)	activity change, negative = inhibition	Potency
Cc1cc2oc(C(=O)N(Cc3ccco3)Cc3ccccc3Cl)c(C)c2cc1C	inactive: -13.4%	
Cc1ccc(SCC(=O)Nc2ccc3oc(-c4ccccc4F)nc3c2)cc1	inactive: 0%	
CCOC(=O)c1ccccc1NC(=O)c1cnc(N2CCOCC2)c2ccccc12	inactive: -8.61%	
Cc1nn(C)c(C)c1CCNC(=O)Nc1ccccc1C(F)(F)F	inactive: -16.8%	
COc1ccc(N2CC(NC(=O)/C=C\c3ccccc3)CC2=O)cc1OC (stereo not drawn)	inactive: 2.02%	
CCN(CC)c1nn2c(=O)c(C(=O)NCc3ccc(N(C)C)cc3)cnc2s1	inactive: 5.8%	
CCC(=O)N1CCc2cc(S(=O)(=O)NC(C(=O)NCCc3cccc(C)c3)C(C)C)ccc21 (stereo not drawn)	inactive: -3.04%	
CN(Cc1ccco1)S(=O)(=O)c1nnc(NC(=O)c2ccccc2Cl)s1	inactive: -8.27%	
O=C(NCc1cccs1)c1ccc(CSc2nc3ccncc3n2Cc2ccccc2F)cc1	inactive: 12.1%	
COc1ccc(C(=O)CCC(=O)Nc2ccc(C)c(Cl)c2)cc1	inactive: 7.94%	
COc1cc(Cl)c(C)cc1Nc1nc2ccccc2n2cnnc12	inactive: -14.4%	
COc1ccccc1CNC(=O)C1CCN(S(=O)(=O)c2cn(C)cn2)CC1	inactive: -21.4%	
CCc1ccccc1N(C)C(=O)c1sc2nc3n(c(=O)c2c1C)CCCCC3	inactive: -1.9%	
COc1ccc(CNC(=O)C2CCN(S(=O)(=O)c3ccc4c(c3)CCCN4C(C)=O)CC2)cc1	inactive: -18%	
CCc1ccccc1NC(=O)c1sc(-n2nc(C)c(Cc3ccccc3)c2C)nc1C	inactive: 2.31%	
COCc1cc(C)nc2sc3c(=O)n(-c4ccccc4C(F)(F)F)nnc3c12	inactive: -4.33%	
Cc1ccc(C)c(CSc2nnc3[nH]c(=O)cc(-c4ccccc4)n23)c1	inactive: -8.28%	
CCCn1cc(S(=O)(=O)c2cc(C)ccc2C)c(=O)c2cc(F)c(N3CCN(CC)CC3)cc21	inactive: -13.8%	
CCOC(=O)c1c(S(=O)(=O)NCC(=O)NCc2ccccc2Cl)c(C)n(C)c1C	inactive: 6.09%	
COCCCn1c(=O)c2sccc2n2c(CCCC(=O)NC3CCC(C)CC3)nnc12 (stereo not drawn)	inactive: -14.8%	
CCCCCCCc1ccc(CCc2cccc(O)c2C(=O)O)cc1	inactive: -3.5%	
Cc1cccc(C)c1-n1ncc(C(=O)N2CCN(c3ncccn3)CC2)c1C1CCN(C(=O)OC(C)(C)C)CC1	inactive: -4.9%	
COc1ccc(C(=O)N(Cc2ccc(N(C)C)cc2)CC2CCCO2)cc1 (stereo not drawn)	inactive: 0.0953%	
CC(C)(N)C(=O)N[C@H](COCc1ccccc1)C(=O)N1CCC2(CC1)CN(S(C)(=O)=O)c1ccccc12	inactive: 3.55%	

Structure (SMILES)	activity change, negative = inhibition	Potency
CCN1CCN(Cc2c(O)ccc3c(=O)c(Oc4ccccc4C(C)C)c(C(F)(F)F)oc23)CC1	inactive: -18.6%	
CCCN1CCN(CCCNC(=O)Cn2nc(C)n3c(cc4c(OC)cccc43)c2=O)CC1	inactive: 1.77%	
Cc1ccc(CNC(=O)c2cc3ccc4cccnc4c3[nH]2)cc1	inactive: 24.9%	
CCN(C(=O)Cn1c(=O)n(Cc2ccccc2)c(=O)c2c1c1cc(OC)ccc1n2C)c1ccccc1	inactive: -12.8%	
Cc1ccc(NC(=O)Cn2cnc3c2c(=O)n(C)c(=O)n3C)cc1C	inactive: -5.97%	
COc1cc(Cl)c(C)cc1NC(c1ccccc1)c1nnc(-c2ccccc2Cl)o1 (stereo not drawn)	inactive: -6.22%	
Cc1ccccc1CNC(=O)c1ccc2nc(C(C)C)oc2c1	inactive: -5.1%	
CC(=O)Nc1ccc2nc(NC(=O)CS(=O)(=O)c3ccc(C)cc3)sc2c1	inactive: -13.6%	
CCC(C)n1c(=N)c(C(=O)NC2CCCCC2)cc2c(=O)n3ccccc3nc21 (stereo not drawn)	inactive: 0.917%	
Cc1ccc(C)c(N2CCN(S(=O)(=O)c3cn(C)c(C)n3)CC2)c1	inactive: -7.62%	
Cc1ccc2c(=O)cc(C(=O)Nc3sc4c(c3C(=O)NCC3CCCO3)CCCC4)oc2c1C (stereo not drawn)	inactive: -3.4%	
Cc1ccc(Cl)cc1NC(=O)CCc1c(C)nc2c3cccnc3nn2c1C	inactive: -12.3%	
COc1ccc(-c2ccc3c(N)c(C(=O)NCc4ccc(C)cc4)sc3n2)cc1	inactive: -5.08%	
CC(C)(C)OC(=O)N1CCC(c2c(C(=O)NCCN3CCOCC3)cnn2-c2ccc(F)cc2)CC1	inactive: -5.13%	
O=C(COc1ccc(F)cc1)Nc1nnc(SCc2cc(=O)n3ccccc3n2)s1	inactive: 11.4%	
COc1ccc(C)cc1NC(=O)C(Cc1ccccc1)NS(=O)(=O)c1ccc(Br)s1 (stereo not drawn)	inactive: -8.66%	
COc1ccc(N2Cc3cccc(C(=O)Nc4ccc(Cl)cc4)c3C2=O)cc1	inactive: -1.62%	
COc1cccc(Cn2c(SCc3ccc(C(=O)N4CCCCC4)cc3)nc3ccncc32)c1		active: 12.6 µM
Cc1cc(Cl)ccc1NC(=O)CN1C(=O)COc2ccc(S(=O)(=O)Nc3ccccc3)cc21	inactive: -7.73%	
CCOC(=O)C1CCCN(C(=O)c2ccc3c(c2)sc2nc(-c4ccc(C)cc4C)cn23)C1 (stereo not drawn)	inactive: -4.87%	
COc1cc(NC(=O)c2ccc3c(Cl)c4c(nc3c2)CCC4)cc(OC)c1OC	inactive: -14%	
CC(=O)c1cccc(-n2c(=O)c3c4c(sc3n(CC(=O)Nc3ccccc3F)c2=O)CN(C(C)=O)CC4)c1	inactive: 2.37%	
CCOC(=O)Cn1c(=O)c2c(nc(N3CCOCC3)n2Cc2ccccc2)n(C)c1=O	inactive: 2.57%	
CCc1ccc(CNC(=O)C2CCN(c3nnc(C)c4c(C)n(-c5ccc(C)cc5)nc34)CC2)cc1	inactive: -13.2%	
